Molecules are shown by their SMILES. In all, about 45,000 compounds went through this assay and about 65 (0.1%) were called active. Calls follow the shape of the dose curve; as a rule, active = well fitted activation curve with a large enough effect; inconclusive = small, poorly fitted or top-dose-only effect; inactive = no such curve, though single readings can be large or run the other way. This is one part of the list.

This test has as its target Galactocerebrosidase (Homo sapiens) (UniProt P54803). The test is described as follows: A Novel Cell-Based Assay to Identify Small Molecules for B -Galactocerebrosidase. Also: 0% is about no effect; nearly all actives have a fitted effect of over 65% in size. The settings on record: 145M-Twi-hGALC-G270D cells (Twitcher mouse brain line with human GALC G270D), HMU-beta-Gal fluorescence, 48 h; series mostly up to 57.5 µM; activation: at the top concentration. The procedure, abridged: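 Live 145M-Twi cells (Twitcher mouse brain-derived, GALC-null) stably expressing human GALC-G270D, with a wild-type GALC line, were compound-treated. Residual GALC activity was then read as fluorescence from 0.1 mM final HMU-β-gal at pH 5.2; higher signal means activation.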
UniProt P54803, sequence (P54803 whole entry, looked up): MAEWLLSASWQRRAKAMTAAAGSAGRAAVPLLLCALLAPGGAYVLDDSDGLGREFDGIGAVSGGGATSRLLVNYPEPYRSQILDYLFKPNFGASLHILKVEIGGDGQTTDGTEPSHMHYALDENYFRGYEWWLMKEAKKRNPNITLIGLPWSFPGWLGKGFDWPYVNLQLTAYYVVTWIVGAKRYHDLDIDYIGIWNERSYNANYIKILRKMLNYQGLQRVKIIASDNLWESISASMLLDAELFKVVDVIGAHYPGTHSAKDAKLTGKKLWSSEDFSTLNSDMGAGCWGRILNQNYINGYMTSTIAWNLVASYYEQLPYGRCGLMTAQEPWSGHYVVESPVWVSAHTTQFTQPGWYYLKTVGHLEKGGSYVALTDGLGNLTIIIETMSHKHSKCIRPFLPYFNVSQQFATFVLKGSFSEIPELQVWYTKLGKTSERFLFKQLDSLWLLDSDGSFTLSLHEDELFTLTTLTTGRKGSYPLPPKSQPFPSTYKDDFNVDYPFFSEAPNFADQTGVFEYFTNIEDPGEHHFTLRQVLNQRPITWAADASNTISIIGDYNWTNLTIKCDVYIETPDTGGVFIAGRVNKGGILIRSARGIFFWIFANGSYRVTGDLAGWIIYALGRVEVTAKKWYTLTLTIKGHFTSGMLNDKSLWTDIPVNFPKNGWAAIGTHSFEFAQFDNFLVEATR
Regarding `CCn1c(=O)cc(SCC(=O)NCc2ccc(Cl)cc2)c2ccccc21`, the “activation” value was inactive: -5.16%.

Consider `COc1cccc(CNCc2cccn2-c2nnc(N3CCN(c4ccccc4)CC3)s2)c1`, for which the “activation” value was inactive: -14.7%. `COc1ccc(-c2[nH]ncc2C(=O)NCc2cccc(OC)c2)cc1`: the “activation” value is inactive: -6.39%. For the compound `O=C(CCn1c(=O)c2sccc2n(CC(=O)Nc2ccccc2)c1=O)NCc1ccccc1Cl`, the “activation” value is inactive: -9.01%. Then `Cc1ccsc1CN(C(=O)COc1ccc(Cl)cc1)C1CCS(=O)(=O)C1` (stereo not given), with inactive: -12.7%; and `CCOc1cccc2cc(-c3cn4c(n3)sc3ccccc34)c(=O)oc12`, with inactive: -10.9%.

`CC1CCN(S(=O)(=O)c2ccc3c(ccc(=O)n3CC(=O)NCc3ccccc3Cl)c2)CC1`: the “activation” value is inactive: -17.3%. For `Cc1ccc(CNC(=O)CSc2nnc(C)c3c(C)n(-c4ccccc4)nc23)cc1` the value was inactive: -21.4%.

As to `Cc1ccc2c(c1)c1c(c(=O)n(-c3ccccc3C)c(=O)n1CC(=O)c1ccc(Cl)cc1)n2C`, the “activation” value was inactive: -9.02%. For `COc1ccc(NC(=O)CSC2=Nc3ccccc3N=C(c3ccc(F)cc3)C2)cc1OC` the value was inactive: -8.66%. As to `CCN(C(=O)CCNC(=O)Cn1cnc2ccccc2c1=O)c1cc(OC)ccc1OC`, the “activation” value was inactive: -5.99%. For `CCCCCOc1ccc(C2SC(=O)NC2=O)cc1OCC` (stereo not given) the value was inactive: -9.5%; for `CCSc1ncc(Cl)c(C(=O)Nc2nc3ccc(Cl)cc3s2)n1`, inactive: -0.679%; for `O=C(Nc1ccc(O)c(-c2nc3ccccc3o2)c1)c1ccc(Br)cc1`, inactive: -4.76%. For `CN(C)c1cccc(C(=O)Nc2nc3ccc(S(=O)(=O)N4CCCC4)cc3s2)c1` the value was inactive: -31.4%. Consider `CN(C)c1ccc(CNC(=O)CN2C(=O)CSc3ccc(S(=O)(=O)N4CCCC4)cc32)cc1`, for which the “activation” value was inactive: -6.94%. For `CCC1CN(C(=O)N2CCC(C(=O)NCc3cc(OC)c(OC)c(OC)c3)CC2)c2ccccc2O1` (stereo not given) the value was inactive: -16.5%; for `O=S(=O)(c1ccc(Cl)cc1)c1nnn2c1nc(NC1CCCCC1)c1sccc12`, inactive: -14%.

On to `CN(C)c1ccc(NC(=O)Cn2nnc3sc4c(c3c2=O)CCC(C(C)(C)C)C4)cc1` (stereo not given), for which the “activation” value was inactive: -13.3%. Then `Cc1ccc(-n2c(=O)c3c(cnn3C)n(Cc3ccc(Cl)cc3)c2=O)cc1`, with inactive: -3.7%; and `Cc1cc(NC(=O)CCc2nc3cccnc3n2Cc2cccs2)ccc1Br`, with inactive: -18.8%. For `Cc1cccc(NC(=O)c2oc3ccccc3c2NC(=O)c2cc(=O)c3ccc(C)cc3o2)c1` the value was inactive: 1.15%; for `Cc1ccc(NC(=O)Nc2c[nH]c(=O)[nH]c2=O)c(Cl)c1`, inactive: -3.1%; for `CCOc1ccc2nc(N3CCCC(C(=O)Nc4cc(C)ccc4C)C3)sc2c1` (stereo not given), inactive: -12.6%. Then `Cc1ccc(NS(=O)(=O)c2cc(-c3cc(C)no3)ccc2C)c(Cl)c1`, with inactive: -3.57%; and `CC(=O)Nc1ccc(NC(=O)C2CCN(S(=O)(=O)c3ccc4c(c3)CCCC(=O)N4)CC2)cc1`, with inactive: -25.3%; and `CCc1ccccc1NC(=O)CSc1nnc(-c2ccc(OC)cc2)s1`, with inactive: -15.7%. As to `CCc1ccc(NC(=O)N(Cc2c[nH]c3ccccc23)C2CCCCC2)cc1`, the “activation” value was inactive: -24.7%. Then `CCOc1ccc(CNC(=O)c2ccc3[nH]c(C)c(C)c3c2)cc1OC`, with inactive: -5.37%. Then `Cc1nc2ccc(CN(C)c3ccc(C(=O)N[C@@H](CCC(=O)O)C(=O)O)s3)cc2c(=O)[nH]1`, with inactive: -11.2%. Then `CCOc1cc(C(=O)Nc2ccc(NC(=O)c3cc4ccccc4o3)c(OC)c2)cc(OCC)c1OCC`, with inactive: 4.71%; and `Cc1cccc(-n2c3nc(=O)n(C)c(=O)c-3cc3c(Cl)cccc32)c1C`, with inactive: 2.15%; and `CCc1nc(SCC(=O)Nc2ccc(NC(C)=O)cc2)n[nH]1`, with inactive: -18.9%. For `CC(C)CCNC(=O)CSCc1cnn(-c2ccccc2)c1-n1cccc1`, the “activation” value is inactive: -9.48%. `CC(C)c1cnc2c(c1SCc1cccc(C(F)(F)F)c1)c(=O)n(C)c(=O)n2C`: the “activation” value was inactive: 0.778%. For `Cc1ccc(-n2c(=O)c3ccc(C(=O)NCc4ccco4)cc3n(Cc3cccc(Cl)c3)c2=O)cc1`, the “activation” value is inactive: -10.4%. Then `COc1ccc(Br)cc1CNC(=O)CN1CCSc2ccccc21`, with inactive: -38.3%; and `Cc1cccn2c(=O)cc(COc3cccc(NC(=O)c4ccccc4F)c3)nc12`, with inactive: -9.96%. On to `COc1ccc(NC(=O)Cn2c(=O)n(Cc3nc(-c4ccccc4)no3)c(=O)c3cc4c(cc32)OCO4)cc1Cl`, for which the “activation” value is inactive: -12.2%. For `O=C(Nc1ccc(Cl)c(Cl)c1)N1CCC(c2ccccc2)C1` (stereo not given) the value was inactive: 4.02%; for `COC(=O)c1ccccc1NC(=O)Cc1noc2ccc(C)cc12`, inactive: -16.2%. For `Cc1cccc(NC(=O)Cn2cc(C(=O)c3ccco3)c3ccccc32)c1C` the value was inactive: -8.78%.

Regarding `CCc1ccccc1NC(=O)Cn1nnc(C(=O)Nc2ccc(C)c(F)c2)c1N`, the “activation” value is inactive: -10.5%.

For `Cc1nn(CC(=O)NCc2ccc(OC(C)C)cc2)c(=O)c2c(C)n(-c3ccc(Cl)cc3)nc12`, the “activation” value was inactive: -9.71%.

For `COc1ccc(CN2C(=O)C(NC(=O)c3ccccc3C)(C(F)(F)F)N=C2c2ccccc2)cc1` (stereo not given), the “activation” value was inactive: -10.6%. For `Cc1ccc2oc(-c3ccc(Cl)c(NC(=O)c4ccc(-c5ccccc5[N+](=O)[O-])o4)c3)nc2c1` the value was inactive: -14.4%; for `COc1ccc2c(c1)-c1nc(NC(=O)c3ccc(Cl)cc3)sc1CC2`, inactive: -31.2%. For `COc1ccc(CNc2ncnc3c2nnn3C)cc1` the value was inactive: 4.28%. For `COc1ccccc1CCNc1ncnc2c1nnn2C` the value was inactive: -1.12%; for `CSc1ccc(CCNC(=O)Cn2ncc3c(=O)oc4ccc(C)cc4c32)cc1`, inactive: -11.3%. In the case of `CCCCCOc1ccc(C2c3c(oc4ccccc4c3=O)C(=O)N2c2nc(C)c(C)s2)cc1OCC` (stereo not given), the “activation” value was inactive: -10.9%.

As for `O=C(CSc1nc2c([nH]c3ccccc32)c(=O)n1-c1ccccc1)N1CCCC1`, the “activation” value is inactive: 4.11%. For `O=C(Nc1ccc(O)cc1)c1cccc(S(=O)(=O)N2CCOCC2)c1` the value was inactive: -1.71%; for `O=C(O)c1cn(C2CC2)c2cc(Cl)c(F)cc2c1=O`, inactive: -4.23%. Then `Cn1nc(C(=O)N2CCN(c3ccccc3)CC2)c2c1-c1ccccc1S(=O)(=O)C2`, with inactive: -12.2%; and `COc1ccc(C)cc1NC(=O)c1ccc2c(Cl)c3c(nc2c1)CCC3`, with inactive: -11.5%; and `COc1ccc(S(=O)(=O)c2c(SC)nn(Cc3ccccc3C)c2NC(C)=O)cc1`, with inactive: -19.9%.

For `CCCC(=O)N1c2nc(C(C)C)nn2C2(CCCCC2)[C@@H]2CCCC[C@@H]21`, the “activation” value is inactive: -6.91%. For `CCCCn1c(=O)c2oc3ccccc3c2n(CC(=O)Nc2cccc(Cl)c2)c1=O` the value was inactive: -13.2%.

With `CCCCc1nn2c(=O)cc(COC(=O)c3ccccc3NC(=O)c3ccccc3OC)nc2s1`, the “activation” value is inactive: -11.6%.

As for `COc1cccc(NS(=O)(=O)c2ccc3[nH]cc(C(=O)N(C)C4CCCCC4)c(=O)c3c2)c1`, the “activation” value was inactive: -3.32%. Regarding `COc1ccc2oc(=O)cc(CN3CCN(c4ccccc4F)CC3)c2c1`, the “activation” value is inactive: -16.3%.

Turning to `COc1cccc(CNC(=O)c2ccc(NC(=O)N3CCCCc4ccccc43)cc2)c1`, the “activation” value is inactive: -0.238%. Then `COc1cc2c(cc1OC)n(CC(=O)c1ccc(F)cc1)c(=O)n1nc(CCn3nc(C)cc3C)nc21`, with inactive: -7.82%.

On to `CCOC(=O)c1cccc(Nc2ccc3cc(S(=O)(=O)N4CCCCC4)ccc3n2)c1`, for which the “activation” value is inactive: -8.91%.

For the compound `O=c1c2oc3ccccc3c2n(Cc2ccccc2)c(=O)n1Cc1ccc2c(c1)OCO2`, the “activation” value was inactive: 9.48%.

For `Cc1ccc(OCC(=O)Nc2ccc3nn(-c4ccc(Cl)cc4)nc3c2)cc1`, the “activation” value was inactive: -21.1%. For `Cc1ccc(C)c(NC(=O)Cn2c(=O)n(CCC(=O)NCc3ccc4c(c3)OCO4)c(=O)c3ccccc32)c1` the value was inactive: -11.1%; for `CCCN1CCCc2cc(CN(CCCN3CCOCC3)C(=O)Nc3ccc(CC)cc3)ccc21`, inactive: 10.6%.

Consider `CCOC(=O)C1CCCN(C(=O)c2ccc3c(c2)N(Cc2ccccc2)C(=O)c2ccccc2S3=O)C1` (stereo not given), for which the “activation” value was inactive: 5.24%. For `COc1cc(C2CC(=O)Nc3c2c(=O)[nH]c2ncnn32)ccc1O` (stereo not given) the value was inactive: -12.1%; for `Cc1ccc(-c2nc(SCC(=O)NCC3CCCO3)c(-c3ccc(C)cc3)[nH]2)cc1` (stereo not given), inactive: -18.5%. Then `O=C(Nc1cccc(Cl)c1)c1csnn1`, with inactive: -15.8%; and `Cc1nnc(N2CCN(C(=O)Nc3cccc(C(F)(F)F)c3)CC2)c2nn(-c3ccccc3)c(C)c12`, with inactive: 6.29%. As for `NC(=O)c1cc(S(=O)(=O)NCC2CCC(C(=O)Nc3ccc(Cl)cc3)CC2)cs1` (stereo not given), the “activation” value is inactive: -15.1%. For `O=C(OCc1cc(=O)n2c3c(sc2n1)CCCC3)c1cccc(NC(=O)c2ccccc2F)c1` the value was inactive: -24.3%; for `COc1ccc(-c2nc3ccccc3n2Cc2ccc(Cl)cc2)cc1`, inactive: -21.8%. Then `Cc1ccc(C(=O)c2oc3ccccc3c2NC(=O)Cc2coc3c(C)c(C)ccc23)cc1`, with inactive: -19.8%. For `COc1cc(C)ccc1OCCSc1nnc(-c2ccc(C)cc2)o1` the value was inactive: -5.13%. In the case of `O=C(NCc1ccccc1Cl)c1ccc(NC(=O)N2CCCCc3ccccc32)cc1`, the “activation” value is inactive: -11.1%. For `Cc1ccc(S(=O)(=O)c2c(Nc3cccc(Cl)c3)sc(C(=O)c3ccc4c(c3)OCO4)c2N)cc1` the value was inactive: -7.44%. As for `CCOc1ccc(NC(=O)CSC2=Nc3ccccc3C3=NC(CC(=O)NCc4ccc5c(c4)OCO5)C(=O)N23)cc1` (stereo not given), the “activation” value is inactive: 13%.

`CC1CCCCN1CC(=O)N1CCCc2c1c(=O)oc1ccc(OCc3ccccc3)cc21` (stereo not given): the “activation” value was inactive: -24.6%.

For the compound `O=C(NCCS(=O)(=O)N1CCN(c2ccccc2)CC1)C1CC(=O)N(c2ccccc2)C1` (stereo not given), the “activation” value was inactive: -24.3%. With `Cc1cc(Br)ccc1NC(=O)C1(S(=O)(=O)c2ccc(Cl)cc2)CC1`, the “activation” value was inactive: -11.8%. For `COc1ccccc1C(=O)Nc1ccc(-c2nc3ccccc3s2)c(C)c1` the value was inactive: -24.3%; for `Cc1cccc(NC(=O)CN(C)S(=O)(=O)c2ccc3c(c2)c(=O)n(C)c(=O)n3C)c1`, inactive: 3.09%; for `COc1cccc(NC(=O)CSC2=Nc3ccccc3C3=NC(CCC(=O)NCc4ccco4)C(=O)N23)c1` (stereo not given), inactive: -14%.

`COc1ccc(-c2nc(CNS(=O)(=O)c3ccc(C)cc3)cs2)cc1`: the “activation” value was inactive: 4%. For `CCOc1ccccc1C(=O)Nc1ccc(S(=O)(=O)N2CCCCC2c2cccnc2)cc1` (stereo not given) the value was inactive: -15.3%; for `COc1ccccc1C(=O)Nc1nnc(S(=O)(=O)N2CCCCCC2)s1`, inactive: -18%; for `Cc1ccc(-c2ccc(=O)n(CC(=O)Nc3ccc(F)c(Cl)c3)n2)cc1C`, inactive: -14.4%. For `CCOc1ccc(CCNc2nc3c(-c4ccc(C)cc4)nnn3c3ccccc23)cc1OCC` the value was inactive: 2.91%; for `COc1ccc(C)c2sc(N(Cc3cccnc3)C(=O)CCc3ccccc3)nc12`, inactive: -11.6%.

For `O=C(Nc1ccc(Cl)c(Cl)c1)C1CC1`, the “activation” value was inactive: -15.9%.

The values above are taken from PubChem BioAssay AID1159614 (National Center for Advancing Translational Sciences (NCATS), 2016).
